Some of the results follow. The full chains were built here from the parent and the listed change. Inactive controls read about 0.05.
B1: TEV protease; numbered along this chain (parent)
chain: MGESLFKGPRDYNPISSSICHLTNESDGHTTSLYGIGFGPFIITNKHLFRRNNGTLVVQSLHGVFKVKDTTTLQQHLVDGRDMIIIRMPKDFPPFPQKLKFREPQREERICLVTTNFQTKSMSSMVSDTSCTFPSGDGIFWKHWIQTKDGQCGSPLVSTRDGFIVGIHSASNFTNTNNYFTSVPKNFMELLTNQEAQQWVSGWRLNADSVLWGGHKVFMVKPEEPFQPVKEATQL

Variants of: B1
Experiment: raw area under fraction-flipped curve 0-4 h after induction (AUC4h, not background-subtracted), DNA-recorder readout of cleavage of the substrate (dimensionless); higher = more cleavage of the substrate by the protease variant
Conditions: temperature: 34 °C; time window: 0-4 h after rhamnose induction
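Note: Bxb1 expression induced with 0.2% (w/v) L-rhamnose at OD600 near 0.5, cultures sampled hourly, flipped fraction per protease–substrate barcode pair counted by paired-end Illumina sequencing.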

Row | Variant | area with substrate EDLYFQS | area with substrate EELYFQS | area with substrate EFLYFQS | area with substrate EGLYFQS | area with substrate ELLYFQS | area with substrate EMLYFQS | area with substrate EPLYFQS | area with substrate EQLYFQS | area with substrate ERLYFQS | area with substrate ESLYFQS | area with substrate EVLYFQS | area with substrate ECLYFQS | area with substrate EHLYFQS | area with substrate EILYFQS | area with substrate EWLYFQS | area with substrate ETLYFQS | area with substrate EYLYFQS | area with substrate EKLYFQS
1 | S60R | 0.116 | 0.103 | 0.138 | 0.0902 | 0.0653 | 0.0901 | 0.109 | 0.107 | 0.0748 | 0.0898 | 0.0964 | – | – | – | – | – | – | –
2 | P228Q | – | 0.136 | 0.117 | 0.093 | 0.104 | 0.14 | 0.085 | – | 0.117 | 0.119 | 0.105 | 0.0892 | 0.102 | 0.0804 | 0.0786 | – | – | –
3 | P228V | – | 0.17 | – | 0.107 | – | – | – | 0.127 | – | 0.113 | 0.103 | 0.0996 | 0.0951 | – | 0.119 | 0.124 | 0.156 | –
4 | P228H | – | 0.0838 | – | 0.109 | 0.0972 | 0.111 | 0.0565 | 0.0847 | 0.0971 | 0.0957 | – | 0.11 | 0.105 | 0.1 | – | 0.117 | – | 0.0959
5 | K230P | 0.131 | 0.121 | – | 0.106 | 0.0788 | – | – | 0.161 | 0.081 | 0.0974 | 0.102 | 0.0953 | 0.115 | 0.0994 | – | 0.101 | – | 0.109
6 | K230I | 0.135 | – | – | 0.0855 | 0.0709 | 0.122 | – | 0.0971 | – | 0.0909 | 0.0931 | 0.111 | 0.0841 | 0.0888 | – | – | – | 0.104
7 | K230F | – | 0.0958 | 0.099 | 0.0856 | – | 0.0972 | 0.12 | 0.0918 | 0.0902 | 0.103 | 0.0911 | 0.0873 | 0.0805 | 0.0704 | – | 0.114 | – | –
8 | E223M | – | 0.108 | – | 0.069 | – | 0.0871 | – | – | – | 0.154 | 0.0873 | 0.102 | 0.0788 | 0.0764 | 0.0895 | – | 0.0738 | –
9 | P9Y | 0.141 | – | – | 0.108 | – | – | 0.118 | 0.102 | 0.147 | 0.11 | 0.105 | – | 0.1 | 0.0992 | – | – | 0.125 | 0.117
10 | Q227S | 0.161 | – | 0.108 | 0.0915 | – | 0.125 | 0.121 | 0.0898 | 0.0809 | 0.0589 | 0.103 | 0.114 | – | 0.0904 | 0.102 | 0.126 | 0.112 | –
11 | N52K | 0.0642 | 0.0596 | – | 0.0705 | 0.075 | 0.0684 | 0.0822 | 0.07 | 0.066 | 0.0708 | 0.0622 | – | – | 0.0914 | 0.0621 | – | 0.0722 | –
12 | Q234L | – | 0.108 | 0.0924 | – | 0.109 | 0.123 | 0.0999 | 0.112 | – | 0.104 | 0.0828 | 0.0781 | – | 0.0633 | 0.0568 | 0.102 | 0.11 | 0.066
13 | Q234F | 0.101 | – | – | – | – | 0.0893 | – | – | 0.113 | 0.0861 | – | 0.111 | 0.116 | 0.0651 | – | – | – | 0.0806
14 | I43W | 0.0588 | 0.0689 | – | – | 0.0645 | – | – | 0.0383 | 0.0599 | 0.0686 | 0.0561 | – | 0.0491 | – | – | 0.0584 | 0.0581 | 0.0244
15 | F226I | – | 0.112 | 0.11 | 0.118 | 0.095 | 0.125 | – | 0.127 | 0.122 | 0.14 | – | 0.128 | – | – | – | – | – | 0.108
16 | E231Q | 0.106 | – | – | 0.0948 | – | – | – | 0.104 | – | 0.1 | 0.0901 | 0.111 | – | 0.111 | 0.0872 | – | – | 0.0654

Row | Variant | area with substrate EDLYFQS | area with substrate EELYFQS | area with substrate EFLYFQS | area with substrate EGLYFQS | area with substrate ELLYFQS | area with substrate EMLYFQS | area with substrate EPLYFQS | area with substrate EQLYFQS | area with substrate ERLYFQS | area with substrate ESLYFQS | area with substrate EVLYFQS | area with substrate ECLYFQS | area with substrate EHLYFQS | area with substrate EILYFQS | area with substrate EWLYFQS | area with substrate ETLYFQS | area with substrate EYLYFQS | area with substrate EKLYFQS
17 | T31N | 0.0637 | 0.115 | 0.102 | 0.0853 | 0.0759 | 0.092 | 0.0532 | 0.105 | 0.0936 | 0.0967 | 0.0889 | – | 0.0939 | 0.0863 | 0.0645 | 0.0987 | – | 0.0918
18 | T31K | 0.0731 | 0.0696 | 0.0516 | 0.0948 | – | 0.0663 | – | 0.0751 | 0.0595 | 0.0703 | – | – | – | 0.083 | 0.0685 | 0.0688 | 0.0685 | 0.0563
19 | I19S | 0.104 | – | 0.0901 | – | – | – | – | – | – | 0.101 | 0.0878 | – | 0.114 | – | – | – | – | 0.0941
20 | V229M | – | 0.107 | – | 0.0833 | 0.114 | 0.0968 | – | 0.11 | – | 0.0896 | 0.113 | 0.108 | 0.0937 | – | 0.0928 | – | – | –
21 | V229I | 0.131 | 0.137 | – | 0.0881 | 0.0987 | – | – | – | – | – | – | 0.125 | 0.0939 | – | 0.105 | – | 0.123 | –
22 | F38G | 0.036 | – | – | 0.0279 | 0.0321 | 0.0442 | – | – | – | – | – | – | – | – | – | – | – | –
23 | P225A | 0.176 | 0.126 | – | – | – | 0.124 | 0.121 | 0.129 | 0.0974 | – | 0.0836 | 0.108 | 0.0993 | 0.109 | – | 0.0801 | 0.0855 | –
24 | P225V | – | 0.149 | 0.103 | 0.0847 | 0.0942 | 0.128 | – | 0.12 | 0.0977 | 0.0986 | 0.101 | 0.094 | – | 0.107 | – | 0.111 | 0.119 | 0.0975
25 | P225L | – | – | – | 0.0674 | – | 0.112 | – | 0.0951 | 0.0874 | 0.112 | 0.0426 | 0.094 | – | 0.0858 | 0.0857 | – | 0.129 | 0.115
26 | P225D | – | 0.0978 | – | – | 0.108 | – | 0.159 | 0.115 | – | – | – | 0.122 | – | – | 0.0918 | – | – | 0.112
27 | D11H | 0.138 | 0.135 | – | 0.0741 | 0.0677 | – | 0.139 | 0.131 | 0.111 | 0.122 | 0.15 | – | 0.101 | 0.106 | – | 0.105 | – | 0.101
28 | L22N | 0.0506 | – | – | – | 0.0454 | 0.0466 | 0.0545 | 0.048 | 0.0559 | 0.0546 | 0.0518 | – | 0.0482 | 0.0466 | – | – | 0.0462 | 0.0477
29 | G39C | 0.0451 | – | 0.0373 | 0.0351 | – | – | 0.0319 | 0.0475 | 0.0561 | 0.0451 | – | – | 0.0545 | 0.0426 | 0.0407 | – | – | 0.0389
30 | H47M | 0.0818 | 0.0596 | 0.0457 | 0.0761 | 0.0424 | 0.0634 | 0.0562 | 0.059 | – | 0.0664 | 0.0773 | – | 0.0643 | 0.053 | 0.0683 | – | 0.0838 | 0.0478
31 | T233N | 0.142 | 0.101 | – | 0.106 | – | 0.112 | 0.176 | – | – | 0.0995 | – | 0.128 | 0.127 | 0.114 | 0.0965 | – | – | –
